Test results published in paper PMC4336329 (PLoS ONE, 2015).
The whole screen tested about 310,000 compounds, of which about 14,000 (4.5%) showed an effect of 50% or more. The effect is printed as a negative number. This is one part of the list.

Each compound was assayed against human ether-à-go-go-related gene (hERG) potassium channel (human, UniProt Q12809) (assay: primary screen, population patch clamp on CHO cells stably expressing hERG).
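Note: peak tail current of the secondary pulse compared with the same well before compound.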

human ether-à-go-go-related gene (hERG) potassium channel, sequence (Q12809 whole entry, looked up): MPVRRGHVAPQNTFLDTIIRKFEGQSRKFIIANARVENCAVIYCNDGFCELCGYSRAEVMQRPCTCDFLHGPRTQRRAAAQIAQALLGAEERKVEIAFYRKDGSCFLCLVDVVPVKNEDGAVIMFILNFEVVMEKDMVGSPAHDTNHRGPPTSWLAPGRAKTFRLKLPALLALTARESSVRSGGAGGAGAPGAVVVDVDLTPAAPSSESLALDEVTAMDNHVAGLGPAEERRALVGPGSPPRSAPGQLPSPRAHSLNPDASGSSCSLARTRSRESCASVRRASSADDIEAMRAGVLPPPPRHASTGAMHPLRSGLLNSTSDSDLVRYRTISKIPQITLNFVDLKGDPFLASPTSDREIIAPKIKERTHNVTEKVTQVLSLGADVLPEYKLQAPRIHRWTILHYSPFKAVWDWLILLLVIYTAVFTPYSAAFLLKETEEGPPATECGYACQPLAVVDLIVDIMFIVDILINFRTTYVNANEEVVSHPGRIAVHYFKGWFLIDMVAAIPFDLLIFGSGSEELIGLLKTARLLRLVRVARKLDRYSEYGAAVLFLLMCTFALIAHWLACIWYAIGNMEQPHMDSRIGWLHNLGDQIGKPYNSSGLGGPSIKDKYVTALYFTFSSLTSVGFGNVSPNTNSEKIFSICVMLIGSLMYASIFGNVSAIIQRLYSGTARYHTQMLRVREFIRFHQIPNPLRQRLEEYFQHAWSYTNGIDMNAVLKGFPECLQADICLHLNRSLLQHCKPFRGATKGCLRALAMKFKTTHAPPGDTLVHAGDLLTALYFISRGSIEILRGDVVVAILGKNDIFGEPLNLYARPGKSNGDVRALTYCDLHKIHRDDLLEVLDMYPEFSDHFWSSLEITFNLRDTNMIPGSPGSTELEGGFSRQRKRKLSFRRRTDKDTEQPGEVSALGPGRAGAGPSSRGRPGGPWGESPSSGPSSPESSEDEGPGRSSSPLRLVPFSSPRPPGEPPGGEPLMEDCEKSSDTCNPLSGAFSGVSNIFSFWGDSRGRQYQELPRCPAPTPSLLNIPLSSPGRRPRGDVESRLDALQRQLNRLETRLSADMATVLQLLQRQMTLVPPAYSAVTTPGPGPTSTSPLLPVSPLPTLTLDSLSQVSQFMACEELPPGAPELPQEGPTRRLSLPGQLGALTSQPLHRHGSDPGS

Row | SMILES | hERG current change (%, negative = inhibition) at 10uM [%]
1 | Cc1c(Br)c(C(F)(F)F)nn1CC(=O)N(C)C1CCCCC1 | 7.18
2 | CNC(=O)Nc1ccccc1F | 14.3
3 | CC1(C)Cc2c(sc(NC(=O)c3ccco3)c2C#N)CO1 | -2.37
4 | CC1(C)CC2(CCO1)OC(=O)CC2C(=O)NCCc1ccccc1 (stereo not drawn) | 19.3
5 | O=C(NC(=S)Nc1ncccn1)c1ccc(F)cc1 | 15.9
6 | Cl.c1ccc(C2NCCc3ccccc32)cc1 (stereo not drawn) | -12.6
7 | CCc1ccc(OCC(=O)N2CC(C(=O)OC)Oc3ccccc32)cc1 (stereo not drawn) | -17.2
8 | CCc1ccccc1NC(=O)c1cnn(-c2ccccc2)c1C | -2.18
9 | CC(=O)N1CCN(C(=O)c2cc(S(=O)(=O)NCc3ccccc3)ccc2C)CC1 | 10.4
10 | CN(c1ccccc1)S(=O)(=O)c1ccc(NC(=O)C2CCCCC2C(=O)O)cc1 (stereo not drawn) | 12.3
11 | CC(CCN1C(Nc2ccccc2)=NC[C@@H]1C)c1ccccc1 (stereo partly drawn) | -52.4
12 | COCc1cc(C)nc(N/N=C/c2ccc(Cl)c(Cl)c2)c1C#N | 12.4
13 | CC1(C)CC(=O)c2c(nn(-c3ccccc3)c2N)C1 | 16
14 | COc1ccc(OC)c(-n2c(=S)[nH]c3cc(C(=O)N4CCCCC4)ccc3c2=O)c1 | 13.6
15 | Cc1cc(Br)c(Cl)cc1NC(=O)CN1C(=O)C2C3CC(c4ccccc4)C(C3)C2C1=O (stereo not drawn) | 5.48
16 | O=C(CCN1C(=O)c2ccccc2S1(=O)=O)Nc1ccc(F)c(F)c1F | -2.68
17 | Cn1nc(-c2ccccc2)c(-c2nc(-c3cccc(Cl)c3)no2)c1Cl | 4.96
18 | COc1cc([N+](=O)[O-])cc(/C=N/NC(=O)C(C)Nc2ccccc2C)c1O (stereo not drawn) | 19.3
19 | O=C(Nc1ccc2c(c1)CCC2)c1ccccc1Br | -12.9
20 | Cc1ccc(NC(=O)CSc2n[nH]c(-c3cccnc3)n2)cc1Cl | -25.5
21 | O=C(CSc1nnc(CNC(=O)c2ccco2)o1)Nc1ccc(Br)cc1 | -19.7
22 | COc1ccc(N(C)S(=O)(=O)c2cccc3nsnc23)cc1 | 9.59
23 | COc1ccccc1-c1noc(CCC(=O)NC2CCCC2)n1 | 13.3

Row | SMILES | hERG current change (%, negative = inhibition) at 10uM [%]
24 | COc1ccc(/C(N)=N/OC(=O)c2ccc(C)c([N+](=O)[O-])c2)cc1OC | 10.1
25 | N#Cc1ccccc1OCC(=O)Nc1ccc2c(c1)OCCCO2 | 3.08
26 | Cc1ccc(Cn2nnnc2CN2CCC(O)(c3ccc(F)cc3)CC2)cc1 | -7.64
27 | O=P(O)(CCc1ccccn1)CN1CCOCC1 | 6.28
28 | Cc1cc(=O)oc2cc(NC(=S)NCc3ccccn3)ccc12 | -6.91
29 | Cc1ccc2nc(SCC(=O)N/N=C/c3ccco3)cc(C)c2c1 | 10.4
30 | O=[N+]([O-])c1ccc2c(c1)C(O)n1nc(-c3ccccc3)nc1S2 (stereo not drawn) | 5.13
31 | Cc1cccc(/N=C/c2ccccn2)n1 | 2.53
32 | COc1ccc(CNC(=O)CNC(=O)CNS(=O)(=O)c2ccc(C)c(C)c2)cc1 | 13.2
33 | O=C(NNC(=O)c1ccc(-c2ccccc2)cc1)Nc1ccc(F)cc1F | 19.8
34 | CCc1ccc(NC(=O)c2cc(-c3ccc(OC)cc3)on2)cc1 | -0.467
35 | O=C(NCc1cccc(C(F)(F)F)c1)c1cccc(S(=O)(=O)N2CCN(Cc3ccccc3)CC2)c1 | 11.9
36 | COc1ccccc1NC(=O)CSc1nccn1Cc1ccccc1 | -8.03
37 | CCN1CCN(c2ccc(N3CCN(C(=O)c4ccc(Br)o4)CC3)nn2)CC1 | -71.5
38 | N#CCCn1cc(C(=O)Nc2ccc([N+](=O)[O-])cc2)c(-c2cccs2)n1 | -59.7
39 | O=C(CC1C(=O)NCCN1C(=O)c1ccc(Cl)cc1)Nc1ccc(F)cc1 (stereo not drawn) | -12.2
40 | CC(=O)NC(NC(C)=O)c1cccc(OCc2ccccc2)c1 | 9.33
41 | COc1cc(C(=O)Nc2scc(-c3ccc(C)cc3)c2C(=O)O)cc(OC)c1OC | 27.2
42 | COc1ccc(Nc2c(-c3ccc(C)cc3)nc3cnccn23)cc1 | -24.5
43 | Cc1cccc(NC(=O)COC(=O)c2ccccn2)c1 | 19.2
44 | CCOC(=O)C1=NOC(C(=O)NN(C)c2ncc(C(F)(F)F)cc2Cl)C1 (stereo not drawn) | 5.69
45 | COc1ccc(C2c3c(-c4cc(Cl)c(C)cc4O)n[nH]c3C(=O)N2Cc2cccnc2)cc1OC (stereo not drawn) | 7.02
